Out of some 310,000 compounds screened, about 14,000 (4.5%) showed an effect of 50% or more. Effects have a minus sign here. The list shows a part of the results.
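Further: peak tail current of the secondary pulse compared with the same well before compound.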

The target of this assay is human ether-à-go-go-related gene (hERG) potassium channel (human, UniProt Q12809). The assay is described as follows: primary screen, population patch clamp on CHO cells stably expressing hERG.
Chain of human ether-à-go-go-related gene (hERG) potassium channel (Q12809 whole entry, looked up): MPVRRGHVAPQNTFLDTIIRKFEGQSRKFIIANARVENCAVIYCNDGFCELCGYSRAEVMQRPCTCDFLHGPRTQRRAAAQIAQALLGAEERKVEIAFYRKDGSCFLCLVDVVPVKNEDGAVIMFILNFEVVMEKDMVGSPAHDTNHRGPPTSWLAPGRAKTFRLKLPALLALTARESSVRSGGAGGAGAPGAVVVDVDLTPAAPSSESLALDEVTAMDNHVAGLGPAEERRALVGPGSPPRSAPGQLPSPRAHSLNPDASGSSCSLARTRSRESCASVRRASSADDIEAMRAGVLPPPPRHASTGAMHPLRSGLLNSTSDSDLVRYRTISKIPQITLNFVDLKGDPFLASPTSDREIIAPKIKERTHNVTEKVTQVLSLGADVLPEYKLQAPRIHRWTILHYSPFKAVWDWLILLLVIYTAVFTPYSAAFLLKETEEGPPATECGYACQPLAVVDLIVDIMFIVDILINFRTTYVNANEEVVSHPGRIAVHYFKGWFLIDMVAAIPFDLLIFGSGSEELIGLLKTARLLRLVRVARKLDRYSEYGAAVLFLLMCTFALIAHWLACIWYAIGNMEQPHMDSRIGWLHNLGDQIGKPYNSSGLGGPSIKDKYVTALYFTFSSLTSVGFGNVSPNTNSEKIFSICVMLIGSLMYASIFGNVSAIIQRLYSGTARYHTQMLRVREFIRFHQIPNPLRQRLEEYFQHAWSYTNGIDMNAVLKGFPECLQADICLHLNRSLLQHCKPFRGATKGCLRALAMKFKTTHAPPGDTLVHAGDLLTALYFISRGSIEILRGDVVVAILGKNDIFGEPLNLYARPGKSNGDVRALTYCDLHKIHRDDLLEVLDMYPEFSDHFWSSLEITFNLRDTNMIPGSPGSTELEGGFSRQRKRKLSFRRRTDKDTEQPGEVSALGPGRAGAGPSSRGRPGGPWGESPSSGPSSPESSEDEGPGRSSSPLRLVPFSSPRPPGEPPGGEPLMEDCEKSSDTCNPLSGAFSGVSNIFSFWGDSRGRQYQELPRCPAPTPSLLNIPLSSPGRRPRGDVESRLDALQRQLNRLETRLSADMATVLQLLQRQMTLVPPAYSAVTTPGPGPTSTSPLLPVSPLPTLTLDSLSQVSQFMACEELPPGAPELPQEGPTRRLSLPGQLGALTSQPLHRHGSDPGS
In the case of `COc1ccc(C(=O)NNC(=O)c2ccc(C(C)(C)C)cc2)cc1`, the “hERG current change (%, negative = inhibition) at 10uM” value came to 4.1%. The result for `COc1ccc(CN(CC(=O)NCc2ccco2)C(=O)CCC(=O)Nc2ccccn2)cc1` reads -3.13%. The result for `COc1ccc(N2CCOCC2)c(NC(=O)c2ccc(Br)o2)c1` reads 7.74%. Turning to `CSc1nc2ccc(S(=O)(=O)NC3CCCCC3)cc2s1`, the “hERG current change (%, negative = inhibition) at 10uM” value was -5.97%. `Cc1cc(C(=O)N/N=C/c2cccc([N+](=O)[O-])c2)c(C)n1-c1ccccc1`: the “hERG current change (%, negative = inhibition) at 10uM” value was found to be 8.8%. As to `C/C(Nc1ccc(F)cc1)=C(/C#N)C(N)=O`, the “hERG current change (%, negative = inhibition) at 10uM” value came to 14%. `C=CCN1C=C2C(=O)C(C)(OC(=O)C3CCCC3)C(=O)C=C2C=C1c1ccsc1` (stereo not shown): the “hERG current change (%, negative = inhibition) at 10uM” value is reported as -19.4%.

In the case of `CN(C)Cc1c(C#N)c2ccccc2n1C`, the “hERG current change (%, negative = inhibition) at 10uM” value was -11.7%.

For the compound `O=C(NC1CCCCC1)n1c(=O)oc2ccc(Cl)cc21`, the “hERG current change (%, negative = inhibition) at 10uM” value turned out to be 16.6%.

In the case of `Cc1sc(NC(=O)c2ccc(OCC(C)C)cc2)c(C(N)=O)c1-c1ccc(Cl)cc1Cl`, the “hERG current change (%, negative = inhibition) at 10uM” value was 4.28%. In the case of `COc1ccc(NC(=O)COC(=O)c2cc(=O)c3ccccc3o2)cc1OC`, the “hERG current change (%, negative = inhibition) at 10uM” value is recorded as -4.11%. Regarding `CC(=O)Nc1cccc(C(=O)Nc2ccc(S(=O)(=O)N3CCCCC3)cc2)c1`, the “hERG current change (%, negative = inhibition) at 10uM” value is reported as -10.3%. With `CS(=O)(=O)c1ccc(C(=O)NCc2ccccc2F)cc1`, the “hERG current change (%, negative = inhibition) at 10uM” value worked out at 6.24%. Turning to `Cc1ccc(NS(=O)(=O)c2c(C(=O)N3CCCCCC3)c(C)n(C)c2C)cc1C`, the “hERG current change (%, negative = inhibition) at 10uM” value is -18%. `O=C1NC2(CCCCCC2)C(=O)N1Cc1ccccc1F`: the “hERG current change (%, negative = inhibition) at 10uM” value was 3.24%.

Take `O=C1c2ccccc2C(=O)N1CCc1nc(-c2ccc(Cl)cc2)no1`: the “hERG current change (%, negative = inhibition) at 10uM” value was -6.18%.

`CC(=O)COC(=O)CNC(=O)c1ccc(Br)cc1`: the “hERG current change (%, negative = inhibition) at 10uM” value is -0.971%. The result for `Cc1cc(C(=O)NC(C)C2CCCO2)no1` (stereo not shown) reads 15.7%; that for `O=C(Cn1nnc(-c2ccccc2Cl)n1)N/N=C/c1ccc2c(c1)OCO2`, 6.19%. Consider `CC1(c2ccncc2)Nc2ccccc2-c2nc3ccccc3n21` (stereo not shown), for which the “hERG current change (%, negative = inhibition) at 10uM” value is -22.1%. Regarding `Cc1cc(NC(=O)c2ccc3c(c2)C(=O)N(C(C)(C)C)C3=O)no1`, the “hERG current change (%, negative = inhibition) at 10uM” value is given as 32.3%. Consider `Cc1ccc(/C=c2\sc3n(c2=O)CN(c2ccc(Br)cc2)CN=3)o1`, for which the “hERG current change (%, negative = inhibition) at 10uM” value was found to be 6.1%. `CCOc1cnc(-c2c(-c3c(Cl)cccc3Cl)noc2C)o1`: the “hERG current change (%, negative = inhibition) at 10uM” value is reported as 5.73%.

As to `COc1ccccc1N1CCN(C(=O)c2ccc(S(=O)(=O)N3CCCCCC3)cc2)CC1`, the “hERG current change (%, negative = inhibition) at 10uM” value is listed as -39.8%. As for `COc1ccc(-c2nnn(CC(=O)N(CCO)C(C(=O)NC3CCCC3)c3ccc(F)cc3)n2)cc1` (stereo not shown), the “hERG current change (%, negative = inhibition) at 10uM” value is recorded as 6.68%. For the compound `Cc1ccc(NC(=O)C2CCN(S(=O)(=O)c3cnc[nH]3)CC2)cc1C`, the “hERG current change (%, negative = inhibition) at 10uM” value is listed as -2.42%. For `CC(=O)Nc1ccc(NC(=S)NC(=O)/C=C/c2ccc(Cl)cc2)cc1` the value was 17.7%; for `COC(=O)[C@@]12CCCCN1[C@H](c1ccc(-c3cc(C(C)=O)cs3)c(OC)c1)[C@H]1C(=O)N(C)C(=O)[C@H]12.O=C(O)C(F)(F)F`, 10.5%; for `O=C(N/N=C/c1ccc(OC(=O)c2ccc3c(c2)OCO3)cc1)c1cncc(Br)c1`, 10.8%. For `CCCCS(=O)(=O)Nc1ccc(Cc2ccncc2)cc1` the value was -50.2%; for `CCCCNc1ncnc2c1nnn2Cc1ccccc1Cl`, 15.8%; for `CCOC(=O)C(C)Sc1nc(=O)n2ccccc2n1` (stereo not shown), 12.7%. The result for `COc1cccc(CNC(=O)c2cc3ccccn3n2)c1` reads -10.1%; that for `O=C(Nc1ccc2c(c1)OCO2)c1nn(-c2ccccc2)c(=O)c2ccccc12`, 11%; that for `CCCCOc1ccc(OCCNC(=O)C2CCCN2C(=O)Nc2ccccc2)cc1` (stereo not shown), 7.95%. `O=C(CNc1cccc(C(F)(F)F)c1)Nc1cccc(S(=O)(=O)N2CCCC2)c1`: the “hERG current change (%, negative = inhibition) at 10uM” value was -6.44%. For the compound `COc1ccc(/C=C2\CC/C(=C\c3ccc(OC)c(OC)c3)C2=O)cc1OC`, the “hERG current change (%, negative = inhibition) at 10uM” value is -6.04%. Take `COc1ccc(/C=N/NC(=O)c2ccc3c(c2)OCO3)c(C(=O)O)c1OC`: the “hERG current change (%, negative = inhibition) at 10uM” value is 15.2%. Regarding `CCc1c(C)sc(NC(=O)c2cc(C(C)C)on2)c1C#N`, the “hERG current change (%, negative = inhibition) at 10uM” value amounted to 3.42%.

On to `Cc1nnc(SCc2cc(=O)n3[nH]cnc3n2)s1`, for which the “hERG current change (%, negative = inhibition) at 10uM” value was -6.64%. For `CC1C(=O)CCN(C(C)(C)C)C1C.Cl` (stereo not shown) the value was 2.46%; for `COc1ccc(-c2cc(C(F)(F)F)n3nc(C(=O)Nc4c(C)n(C)n(-c5ccccc5)c4=O)c(Cl)c3n2)cc1`, 29.3%.

`COc1ccc(NC(=O)CN(C)C(=O)CSCc2ccc(C)cc2)cc1`: the “hERG current change (%, negative = inhibition) at 10uM” value is -3.56%.

Consider `CN1C(=O)C(C)(C)c2cc(S(=O)(=O)NCC3CCC(C(=O)NCc4ccc(F)cc4)CC3)ccc21` (stereo not shown), for which the “hERG current change (%, negative = inhibition) at 10uM” value is reported as -47%. Consider `O=C(c1cc2ccccc2oc1=O)N(Cc1cccs1)CC1CCCO1` (stereo not shown), for which the “hERG current change (%, negative = inhibition) at 10uM” value is on record as -1.86%.

With `O=c1oc(CCCO)cc2ccc(C#Cc3ccsc3)cc12`, the “hERG current change (%, negative = inhibition) at 10uM” value is -8.12%. As to `CN(CCOc1ccc(Cl)cc1)CC(=O)Nc1ccc(OC(F)F)cc1`, the “hERG current change (%, negative = inhibition) at 10uM” value is recorded as -71.4%. Regarding `CCn1cc(S(=O)(=O)Nc2ccccc2C(F)(F)F)cn1`, the “hERG current change (%, negative = inhibition) at 10uM” value was 16.7%. For `Cc1nc2ccccn2c1CN(C)C(=O)C1CCC(=O)N(Cc2cccc(F)c2)C1` (stereo not shown) the value was -80.2%. `CCC/C=N/NC(=O)c1cc(Br)ccc1O`: the “hERG current change (%, negative = inhibition) at 10uM” value was 7.54%. The result for `CC(C)c1csc2nc3n(c(=O)c12)CCCCC3` reads -10.7%; that for `COc1cc(OC)cc(C(=O)Nc2nc(CC(=O)NC(C)c3ccccc3)cs2)c1` (stereo not shown), -1.59%; that for `Cc1ccc2oc(=O)n(CCOc3ccccc3Cl)c2c1`, -7.26%. Turning to `CCCCCC(=O)N1CC2(CC(c3cccc(NC(=O)c4ccccc4)c3)=NO2)C[C@@H]1C(N)=O` (stereo partly shown), the “hERG current change (%, negative = inhibition) at 10uM” value is -54.6%. The result for `Cc1ccc(-c2nc3ncccc3o2)cc1NC(=O)c1ccco1` reads -19.6%.

For the origin of these results see PMC4336329 (PLoS ONE, 2015).
